# Test results: the supplement of paper PMC8728848
# The list shows a part of the results.
# B1: SP15308A-bot-339-19-339 (Bacteroides ovatus) (protein)
# chain: ACNNEWEDEQYEQYISFKSPIPAGGEGVTDIYVRYKEDGKVTYRLPIVVSGSTTNTLDREVHIAVDKDTLETLNIERFSIHRPGLWYTALEEDKYDFPKTVHISAGSSVEQLNIDFNLQGIDMLEKWVLPLTIVDDPSYNYKSHPRKNYAKALLRVIPFNNYSGSYTSSAMKVYTYINGKPDTNARTANKRTGYVINDNTVFFYAGLISEDLDKEVREKYKINVHFNEDGTLHMEQGDPTNKMKFELIGTPTYSKTSVMDATRPYLERRYVQIMFEYDFEDFSYGGNGVDVIPIKYKVEGSMTLQRNINTQIPDEDQQIEW
# Assays:
# Test in all cases: glycan array binding signal (z-score within array); higher = stronger binding
# Settings in all cases: glycan notation: IUPAC condensed, linker removed
# [1] = molecular target: Gal(b1-3)GalNAc(b1-3)Gal(a1-4)Gal(b1-4)Glc
# In short: (§1)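 Glycan array binding is given as a within-array Z-score, which can be read as non-binding when negative. The arrays, 3228 of them, came from the Consortium for Functional Glycomics database and were retained only where the protein sequence was available. Z-scores were averaged across arrays of the same protein sequence at different concentrations or buffers and across linkers.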
# [2] = molecular target: Gal(b1-3)GalNAc(b1-4)Gal(b1-4)Glc
# In short: as §1
# [3] = molecular target: Gal(b1-3)GalNAc(b1-4)[Neu5Ac(a2-3)]Gal(b1-4)Glc
# In short: as §1
# [4] = molecular target: Gal(b1-3)GlcNAc
# In short: as §1
# [5] = molecular target: Gal(b1-3)GlcNAc(a1-3)Gal(b1-4)GlcNAc
# In short: as §1
# [6] = molecular target: Gal(b1-3)GlcNAc(a1-6)Gal(b1-4)GlcNAc
# In short: as §1
# [7] = molecular target: Gal(b1-3)GlcNAc(b1-2)Man
# In short: as §1
# [8] = molecular target: Gal(b1-3)GlcNAc(b1-2)Man(a1-3)[Gal(b1-3)GlcNAc(b1-2)Man(a1-6)]Man(b1-4)GlcNAc(b1-4)GlcNAc
# In short: as §1
# [9] = molecular target: Gal(b1-3)GlcNAc(b1-2)Man(a1-3)[Gal(b1-3)GlcNAc(b1-2)Man(a1-6)]Man(b1-4)GlcNAc(b1-4)[Fuc(a1-6)]GlcNAc
# In short: as §1
# [10] = molecular target: Gal(b1-3)GlcNAc(b1-2)Man(a1-3)[GlcNAc(b1-4)][Gal(b1-3)GlcNAc(b1-2)Man(a1-6)]Man(b1-4)GlcNAc(b1-4)GlcNAc
# In short: as §1
# [11] = molecular target: Gal(b1-3)GlcNAc(b1-2)[Gal(b1-3)GlcNAc(b1-6)]Man(a1-6)[Gal(b1-3)GlcNAc(b1-2)Man(a1-3)]Man(b1-4)GlcNAc(b1-4)GlcNAc
# In short: as §1
# [12] = molecular target: Gal(b1-3)GlcNAc(b1-3)Gal(b1-3)GlcNAc
# In short: as §1
# [13] = molecular target: Gal(b1-3)GlcNAc(b1-3)Gal(b1-4)Glc
# In short: as §1
# [14] = molecular target: Gal(b1-3)GlcNAc(b1-3)Gal(b1-4)GlcNAc
# In short: as §1
# [15] = molecular target: Gal(b1-3)GlcNAc(b1-3)Gal(b1-4)GlcNAc(b1-2)Man(a1-3)[Gal(b1-3)GlcNAc(b1-3)Gal(b1-4)GlcNAc(b1-2)Man(a1-6)]Man(b1-4)GlcNAc(b1-4)GlcNAc
# In short: as §1
# [16] = molecular target: Gal(b1-3)GlcNAc(b1-3)Gal(b1-4)GlcNAc(b1-2)[Gal(b1-3)GlcNAc(b1-3)Gal(b1-4)GlcNAc(b1-6)]Man(a1-6)[Gal(b1-3)GlcNAc(b1-3)Gal(b1-4)GlcNAc(b1-2)Man(a1-3)]Man(b1-4)GlcNAc(b1-4)[Fuc(a1-6)]GlcNAc
# In short: as §1
# [17] = molecular target: Gal(b1-3)GlcNAc(b1-3)Gal(b1-4)GlcNAc(b1-3)Gal(b1-4)GlcNAc(b1-2)[Gal(b1-3)GlcNAc(b1-3)Gal(b1-4)GlcNAc(b1-3)Gal(b1-4)GlcNAc(b1-6)]Man(a1-6)[Gal(b1-3)GlcNAc(b1-3)Gal(b1-4)GlcNAc(b1-3)Gal(b1-4)GlcNAc(b1-2)Man(a1-3)]Man(b1-4)GlcNAc(b1-4)[Fuc(a1-6)]GlcNAc
# In short: as §1
# [18] = molecular target: Gal(b1-3)GlcNAc(b1-3)Gal(b1-4)GlcNAc(b1-6)[Gal(b1-3)GlcNAc(b1-3)]Gal(b1-4)Glc
# In short: as §1
# [19] = molecular target: Gal(b1-3)GlcNAc(b1-3)Gal(b1-4)[Fuc(a1-3)]GlcNAc
# In short: as §1
# [20] = molecular target: Gal(b1-3)GlcNAc(b1-3)Gal(b1-4)[Fuc(a1-3)]GlcNAc(b1-6)[Gal(b1-3)GlcNAc(b1-3)]Gal(b1-4)Glc
# In short: as §1
# [21] = molecular target: Gal(b1-3)GlcNAc(b1-3)GalNAc
# In short: as §1
# [22] = molecular target: Gal(b1-3)GlcNAc(b1-6)Gal(b1-4)GlcNAc
# In short: as §1
# [23] = molecular target: Gal(b1-3)GlcNAc(b1-6)GalNAc
# In short: as §1
# [24] = molecular target: Gal(b1-3)GlcNAc(b1-6)[Gal(b1-3)]GalNAc
# In short: as §1
# [25] = molecular target: Gal(b1-3)GlcNAc6S
# In short: as §1
# [26] = molecular target: Gal(b1-3)[Fuc(a1-4)]GlcNAc
# In short: as §1
# [27] = molecular target: Gal(b1-3)[Fuc(a1-4)]GlcNAc(b1-2)Man
# In short: as §1
# [28] = molecular target: Gal(b1-3)[Fuc(a1-4)]GlcNAc(b1-2)Man(a1-3)[Gal(b1-3)[Fuc(a1-4)]GlcNAc(b1-2)Man(a1-6)]Man(b1-4)GlcNAc(b1-4)[Fuc(a1-6)]GlcNAc
# In short: as §1
# [29] = molecular target: Gal(b1-3)[Fuc(a1-4)]GlcNAc(b1-3)Gal(b1-3)[Fuc(a1-4)]GlcNAc
# In short: as §1
# [30] = molecular target: Gal(b1-3)[Fuc(a1-4)]GlcNAc(b1-3)Gal(b1-4)[Fuc(a1-3)]GlcNAc
# In short: as §1
# [31] = molecular target: Gal(b1-3)[Fuc(a1-4)]GlcNAc(b1-6)GalNAc
# In short: as §1
# [32] = molecular target: Gal(b1-3)[GlcNAc(b1-6)]GalNAc
# In short: as §1
# [33] = molecular target: Gal(b1-3)[Neu5Ac(a2-6)]GalNAc
# In short: as §1
# [34] = molecular target: Gal(b1-3)[Neu5Ac(a2-6)]GlcNAc(b1-4)Gal(b1-4)Glc
# In short: as §1
# [35] = molecular target: Gal(b1-3)[Neu5Ac(b2-6)]GalNAc
# In short: as §1
# [36] = molecular target: Gal(b1-4)Gal
# In short: as §1
# [37] = molecular target: Gal(b1-4)GalNAc(a1-3)[Fuc(a1-2)]Gal(b1-4)GlcNAc
# In short: as §1
# [38] = molecular target: Gal(b1-4)GalNAc(b1-3)[Fuc(a1-2)]Gal(b1-4)GlcNAc
# In short: as §1
binder,measurement,setting,value
B1,glycan array binding signal (z-score),[1],-0.489
same,glycan array binding signal (z-score),[2],-0.149
same,glycan array binding signal (z-score),[3],-0.5
same,glycan array binding signal (z-score),[4],0.061
same,glycan array binding signal (z-score),[5],0.217
same,glycan array binding signal (z-score),[6],-0.414
same,glycan array binding signal (z-score),[7],2.76
same,glycan array binding signal (z-score),[8],0.261
same,glycan array binding signal (z-score),[9],-0.152
same,glycan array binding signal (z-score),[10],-0.153
same,glycan array binding signal (z-score),[11],-0.325
same,glycan array binding signal (z-score),[12],0.024
same,glycan array binding signal (z-score),[13],-0.437
same,glycan array binding signal (z-score),[14],0.03
same,glycan array binding signal (z-score),[15],0.086
same,glycan array binding signal (z-score),[16],0.558
same,glycan array binding signal (z-score),[17],0.752
same,glycan array binding signal (z-score),[18],0.016
same,glycan array binding signal (z-score),[19],-0.575
same,glycan array binding signal (z-score),[20],0.183
same,glycan array binding signal (z-score),[21],0.029
same,glycan array binding signal (z-score),[22],-0.558
same,glycan array binding signal (z-score),[23],0.162
same,glycan array binding signal (z-score),[24],-0.274
same,glycan array binding signal (z-score),[25],-0.287
same,glycan array binding signal (z-score),[26],-0.203
same,glycan array binding signal (z-score),[27],0.303
same,glycan array binding signal (z-score),[28],0.611
same,glycan array binding signal (z-score),[29],-0.08
same,glycan array binding signal (z-score),[30],-0.228
same,glycan array binding signal (z-score),[31],0.189
same,glycan array binding signal (z-score),[32],-0.316
same,glycan array binding signal (z-score),[33],-0.201
same,glycan array binding signal (z-score),[34],0.766
same,glycan array binding signal (z-score),[35],-0.06
same,glycan array binding signal (z-score),[36],-0.339
same,glycan array binding signal (z-score),[37],-0.475
same,glycan array binding signal (z-score),[38],-0.312
